Measurements from the supplement of paper PMC3334620.
Whole data set: some 33,000 sequences, median “E-score (-0.5 to 0.5)” near -0.04, cut for the highest 2% near 0.36. The list shows a part of the results.

target: T1, Hmlalpha2 (UniProt P0CY09); assay: PBM E-score (8-mer binding enrichment) (E-score (-0.5 to 0.5)); higher = stronger / more preferred TF binding; most listed sequences are background and not binding sites; conditions: protein concentration: 200 nM; construct: GST-full length
T1 sequence: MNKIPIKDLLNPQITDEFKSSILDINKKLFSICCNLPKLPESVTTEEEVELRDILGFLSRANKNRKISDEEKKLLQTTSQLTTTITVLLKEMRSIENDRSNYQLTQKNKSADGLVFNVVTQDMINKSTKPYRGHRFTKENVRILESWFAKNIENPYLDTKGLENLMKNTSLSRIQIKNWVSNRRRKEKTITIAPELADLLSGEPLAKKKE
Procedure: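 Universal 'all 10-mer' protein binding microarrays (Agilent AMADID 015681) probed with GST-tagged S. cerevisiae TFs (full-length or DBD) made by in vitro transcription/translation (PURExpress), about 100-200 nM. Bound TF was detected with fluorescent anti-GST. Each ungapped 8-mer (which stands for itself and its reverse complement) is scored by the PBM enrichment score (E-score), a modified Wilcoxon-Mann-Whitney statistic from -0.5 to +0.5, computed with the Universal PBM Analysis Suite. Scale: above 0.35 generally sequence-specific binding.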

Sequence	PBM E-score
TGGAACAA	0.119
CTTCGCAC	-0.0508
GTCTCATA	0.0229
AATTGACA	0.275
CGTAGGGC	-0.142
CATAGAAG	0.168
CAGCGGTA	0.056
TCCCTCCA	-0.271
ACGCCGCA	-0.0652
AGCCTAGA	-0.204
ACGGGACT	-0.101
GATAAATC	-0.0973
CAGTTACC	-0.0227
CGAGAGCC	-0.342
ACCTAAGT	0.0659
ATTGTCAA	0.182
AACTAACC	0.254
GAAATGGC	-0.227
AAAAGCGC	0.0549
TCGAGGCA	-0.0756
CAATGGCG	-0.276
AGCTCGAA	-0.107
TCATTCCA	-0.147
GTGCCGCA	-0.15
TCGAATCA	-0.0462

Sequence	PBM E-score
CATTCCTA	-0.0738
ACTCCTTA	-0.103
ACGGCACC	-0.176
GCCCACAA	-0.223
AAGTATAA	0.148
CAGCCGGA	-3e-05
AATACTGC	-0.164
TATGAATA	0.158
AGTACCTA	0.12
CACTTTCA	-0.0448
GTAAACAC	0.416
AGTTAACA	0.392
GCATGACC	-0.191
GACCGTCA	-0.158
AACAGCAT	0.124
CCATACCG	-0.227
ATAGGGCA	-0.199
CGTGCACA	0.0535
AGTTCGAC	0.0995
AATGACCA	-0.128
TCGGAAAA	0.033
GCTCCGCA	-0.128
ATGCATTC	0.0676
CCCTCGAA	-0.283
GCAACTTA	0.121

Sequence	PBM E-score
ACCACTAC	-0.103
GTGCTAAA	0.201
CATAGCCG	0.13
CCCAGGAG	-0.293
CCAGGGCA	-0.241
ACGGGATA	-0.00603
ATAAGGTC	-0.0499
AGTACTTA	0.095
AGCCAACG	-0.0146
GACATATC	0.0678
AGCGAACT	-0.023
CCTCGAGC	-0.148
CAGAACAA	0.255
AGGGTGCG	-0.148
CCGCGCGG	-0.0226
CGGGTCCA	-0.262
ACAATACA	0.326
TTAACAAA	0.347
ACCAATAC	0.118
AGAGAGCA	-0.234
CGATACAA	0.0812
CACAAATA	0.248
GCGTCGCA	-0.0805
TCCCGCGA	-0.243
GAGATATC	-0.00919

Sequence	PBM E-score
ACTTATGC	-0.00662
CAAAACTC	0.0232
GGCGAACC	-0.277
CGCCGTAG	0.0186
GCCCGCTA	-0.191
CGAATTAC	0.236
TGATGACA	0.108
CCCCATTC	-0.266
GAAACTGC	-0.28
TAATCATA	0.188
CGAGTTCC	0.0842
ATGCCACA	0.0402
GGAGGTAC	-0.204
AGGAGCGG	-0.361
AAGGCCAC	-0.186
CCACCAGC	-0.127
GACGCCGA	-0.126
GCCGGGAC	-0.307
ACGATCAG	-0.0473
CTGAGCCA	-0.213
TGAAAGCA	0.101
AACATCTC	0.22
GCTCCAAC	-0.042
GTAACCTA	0.143
AAACTTTG	0.115

Sequence	PBM E-score
AACGAAAC	0.0787
GGGCCCTA	-0.325
GGCGTCAC	-0.233
CTTCCACA	-0.031
AGGATTAC	0.279
ATCGCCAC	-0.102
CCTAAAAC	0.0405
TACTCATA	-0.0114
ATGTTAAG	0.445
GAAATCCC	-0.119
ACGAGCTA	0.108
GGTCTGGA	-0.32
CTTGATAC	0.169
GAGCACTC	-0.122
GGACACCA	-0.228
CAGGCGCC	-0.0392
AAGCGCAC	-0.0172
GCCATAAC	-0.0921
CAACATCG	0.176
ACGGGTAT	0.105
GGCAACTA	0.0116
GCTTTACA	0.405
ACATAGGG	0.251
CGGATCAG	-0.168
GATAAACA	0.212

Sequence	PBM E-score
AATTCGGA	-0.00295
CTCGTTAA	0.195
GGCGTCCA	-0.138
CAACGTTG	0.336
ATCTTTGC	0.108
ACGTTTAA	0.323
AGTCAAAC	-0.0636
GCAAACAA	0.118
CGAGGCTA	-0.00576
CAAGTAAC	0.216
CAACTAAA	0.176
AACGAGTT	0.177
GCCATCAC	-0.133
CCCATTGA	-0.0288
ATGTATGA	0.296
GCACTCTA	-0.147
AACTAGTA	0.178
AGAATACT	0.231
AAGTGTCC	-0.0446
AGCCTTGG	-0.102
CAACCAGA	0.108
CCCAGAAG	-0.154
GAACATCC	0.0646
CCCATACC	-0.159
GACGGCGC	-0.218

Sequence	PBM E-score
AACTAGAT	0.0979
AGCGCAAA	-0.00143
GTGCTAGA	-0.00911
GGAAAAAC	0.0566
GGCATTCA	-0.211
GCAGTGAC	-0.0529
CTGTACCA	-0.18
AATGCTGC	0.122
CACGCGTA	0.277
GACCACGA	-0.0864
ACGAAGCC	-0.155
ATGACGTG	0.256
TCTATGCA	0.115
ACACTAAG	0.145
GCCACGCA	-0.185
AAGTGTGA	0.0353
CAAGGGGG	-0.175
CCGTACAC	0.205
ATCTGGAA	-0.119
AGTTACAA	0.215
AGACCAGG	-0.104
ATAGTAAT	0.187
